The list shows a part of the results. At the low end of the ranking, values are background and their order means little.

This experiment has as its target GST-SBP-SLBP (stem-loop binding protein) (UniProt Q14493). The experiment in a line: targeted RNA Bind-n-Seq.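 Further: DESeq read counts versus GST-SBP nonspecific binding control pulldown.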 The conditions noted are these: RBNS binding buffer: 25 mM Tris pH 7.5, 150 mM KCl, 3 mM MgCl2, 0.1% Tween, 0.5 mg/mL BSA, 1 mM DTT; 27 nM protein, 750 pM RNA pool; temperature not stated; high values mean tight binding.
Take “GGUCACGUCUCAAUCAACUCAAUGUCAGGAGUUUUCUCCUGUUAAUUCAACAGCUCGCAGUCAAG”: the binding signal (log2 fold change) was -0.0274.

Regarding “GGUCACGUCUCAAUCAACUCUAUCGAGGGGGGGAAAACCCCUUUGCCCUCACAUUCAACAGCUCGCAGUCAAG”, the binding signal (log2 fold change) was -0.204.

“GGUCACGUCUCAAUCAACUCAUCGUCAGGAGUUUCCUCCUGUAUACUCAACAGCUCGCAGUCAAG”: the binding signal (log2 fold change) was determined as 0.184.

In the case of “GGUCACGUCUCAAUCAACUCAGUUUCAGGAGUUUUCUCCUGCUAAUUCAACAGCUCGCAGUCAAG”, the binding signal (log2 fold change) was -0.066.

Consider “GGUCACGUCUCAAUCAACUCUUUCGCAGGAGUUUCCUCCUGGUUUCUCAACAGCUCGCAGUCAAG”, for which the binding signal (log2 fold change) was found to be 0.247.

Regarding “GGUCACGUCUCAAUCAACUCAACUUCAGGAGUUUUCUCCUGCAUACUCAACAGCUCGCAGUCAAG”, the binding signal (log2 fold change) is -0.00692.

“GGUCACGUCUCAAUCAACUCUUUAGAGGGGGGGAAAACCCCUUUACCCUCCACAUCAACAGCUCGCAGUCAAG”: the binding signal (log2 fold change) was 0.0365.

For the sequence “GGUCACGUCUCAAUCAACUCAACAGAGGGGGGGAAAACCCCUUUACCCUCAUCUUCAACAGCUCGCAGUCAAG”, the binding signal (log2 fold change) came to 0.275.

For the sequence “GGUCACGUCUCAAUCAACUCAAUCUCCAGGGAAACCCCUGGUUUUCUCAACAGCUCGCAGUCAAG”, the binding signal (log2 fold change) is -0.0236.

Regarding “GGUCACGUCUCAAUCAACUCAUUCCCAGGAGUUUUCUCCUGCUUUCUCAACAGCUCGCAGUCAAG”, the binding signal (log2 fold change) is 0.149.

For the sequence “GGUCACGUCUCAAUCAACUCAGUCCCAGGAGUUUGCUCCUGCUAAUUCAACAGCUCGCAGUCAAG”, the binding signal (log2 fold change) was -0.0496.

Take “GGUCACGUCUCAAUCAACUCAUUUCCAGGAGUUUUCUCCUGCUUUGUCAACAGCUCGCAGUCAAG”: the binding signal (log2 fold change) came to 0.0246.

“GGUCACGUCUCAAUCAACUCUUUUCCCAGGGAAAACCCUGGUAAUCUCAACAGCUCGCAGUCAAG”: the binding signal (log2 fold change) was -0.00474.

For “GGUCACGUCUCAAUCAACUCAUCGGCAGGAGUUUUCUCCUGGAAUUUCAACAGCUCGCAGUCAAG”, the binding signal (log2 fold change) was 0.0369.

Consider “GGUCACGUCUCAAUCAACUCAUCGCCAGGAGUUUUCUCCUGUUUAUUCAACAGCUCGCAGUCAAG”, for which the binding signal (log2 fold change) was -0.0302.

As to “GGUCACGUCUCAAUCAACUCAUCUUCCAGGGAAAUCCCUGGUAAAUUCAACAGCUCGCAGUCAAG”, the binding signal (log2 fold change) turned out to be 0.0142.

In the case of “GGUCACGUCUCAAUCAACUCUUUUUCAGGAGUUUUCUCCUGCUUUCUCAACAGCUCGCAGUCAAG”, the binding signal (log2 fold change) turned out to be 0.119.

In the case of “GGUCACGUCUCAAUCAACUCUUCUUCAGGAGUUUACUCCUGUUUACUCAACAGCUCGCAGUCAAG”, the binding signal (log2 fold change) was -0.025.

For the sequence “GGUCACGUCUCAAUCAACUCCUUCGAGGGGGGGAAAACCCCUUUACCCUCUAAAUCAACAGCUCGCAGUCAAG”, the binding signal (log2 fold change) was -0.106.

With “GGUCACGUCUCAAUCAACUCUUCUGAGGGGGGGAAAACCCCUUUACCCUCCAAAUCAACAGCUCGCAGUCAAG”, the binding signal (log2 fold change) is -0.147.

In the case of “GGUCACGUCUCAAUCAACUCAAUUCCCAGGGAAACCCCUGGUUUAUUCAACAGCUCGCAGUCAAG”, the binding signal (log2 fold change) was -0.223.

For the sequence “GGUCACGUCUCAAUCAACUCAAUUUCCAGGGAAAUCCCUGGUAUAUUCAACAGCUCGCAGUCAAG”, the binding signal (log2 fold change) came to 0.102.

For the sequence “GGUCACGUCUCAAUCAACUCUUUCUCCAGGGAAACCCCUGGCAUGUUCAACAGCUCGCAGUCAAG”, the binding signal (log2 fold change) is -0.0552.

As to “GGUCACGUCUCAAUCAACUCUUUCGCAGGAGUUUUCUCCUGGUAUUUCAACAGCUCGCAGUCAAG”, the binding signal (log2 fold change) was -0.0277.

Turning to “GGUCACGUCUCAAUCAACUCUCUAGAGGGGGGGAAAACCCCUUUGCCCUCAUUAUCAACAGCUCGCAGUCAAG”, the binding signal (log2 fold change) was -0.0197.

Turning to “GGUCACGUCUCAAUCAACUCUUUUUCAGGAGUUUACUCCUGCUUUUUCAACAGCUCGCAGUCAAG”, the binding signal (log2 fold change) is 0.029.

On to “GGUCACGUCUCAAUCAACUCAAUCCCCAGGGAAAACCCUGGCAAAUUCAACAGCUCGCAGUCAAG”, for which the binding signal (log2 fold change) was determined as 0.134.

Consider “GGUCACGUCUCAAUCAACUCAACUUCCAGGGAAAGCCCUGGCAUUCUCAACAGCUCGCAGUCAAG”, for which the binding signal (log2 fold change) came to 0.276.

Turning to “GGUCACGUCUCAAUCAACUCUUCUUCCAGGGAAAACCCUGGUUAUGUCAACAGCUCGCAGUCAAG”, the binding signal (log2 fold change) is -0.117.

As for “GGUCACGUCUCAAUCAACUCUUCUUCAGGAGUUUUCUCCUGUUAAUUCAACAGCUCGCAGUCAAG”, the binding signal (log2 fold change) was -0.225.

With “GGUCACGUCUCAAUCAACUCUAUCCCAGGAGUUUACUCCUGCUUUCUCAACAGCUCGCAGUCAAG”, the binding signal (log2 fold change) was -0.00403.

As to “GGUCACGUCUCAAUCAACUCAAACGAGGGGGGGAAAACCCCUUUGCCCUCAUAAUCAACAGCUCGCAGUCAAG”, the binding signal (log2 fold change) was -0.186.

“GGUCACGUCUCAAUCAACUCAUUCGAGGGGGGGAAAACCCCUUUACCCUCAUCAUCAACAGCUCGCAGUCAAG”: the binding signal (log2 fold change) is -0.0259.

In the case of “GGUCACGUCUCAAUCAACUCCUACGAGGGGGGGAAAACCCCUUUACCCUCAUUUUCAACAGCUCGCAGUCAAG”, the binding signal (log2 fold change) was determined as 0.0386.

In the case of “GGUCACGUCUCAAUCAACUCUAUCCCAGGAGUUUACUCCUGUUAUCUCAACAGCUCGCAGUCAAG”, the binding signal (log2 fold change) was -0.152.

For “GGUCACGUCUCAAUCAACUCAUCCCCCAGGGAAAACCCUGGUAAUUUCAACAGCUCGCAGUCAAG”, the binding signal (log2 fold change) is 0.0912.

Take “GGUCACGUCUCAAUCAACUCUUUCCCAGGAGUUUCCUCCUGUUAUUUCAACAGCUCGCAGUCAAG”: the binding signal (log2 fold change) is 0.0625.
